# PubChem BioAssay (NCI)
#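 Growth conditions: 96-well plates. Treatment: test compound, 48 hours, 5 concentrations. Analysis: linear interpolation between bracketing concentrations; unreached endpoints set to highest concentration. GI50 marks 50% less growth.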 Not every entry of the source has a single result; some have several. Only these are listed. An entry can have further records. A record mostly stands for its own series of concentrations, which the source does not state; a value can be the end of its range.
# Tested on: MDA-MB-468 breast
# Test: inhibition of tumour cell growth, NCI panel, 48 h
smiles,measurement,value
CC1(C)CC(=O)c2c(ccc(C(=O)C[C@H](N)CO)c2N)O1,GI50,3.9 µM and 210 nM
